These results are taken from PMC4081100.

Only a part is listed here, and it is no random draw. For part of these data: At the low end of the ranking the order means little. This is one part of the list. For part of these data: The source does not settle which construct or isoform was used.

Assay in all cases: universal protein binding microarray (PBM)
Common to all, as to details: transcription factors of Arabidopsis thaliana; high values mean tight binding; most listed sequences are background and not binding sites; double strand, one strand shown

For one assay, the target named is GST-NTL6(1-168) (UniProt Q9SCK6).
The target in another assay is T1, GST-ANAC055(1-171) (UniProt Q9LDY8).
T1 sequence: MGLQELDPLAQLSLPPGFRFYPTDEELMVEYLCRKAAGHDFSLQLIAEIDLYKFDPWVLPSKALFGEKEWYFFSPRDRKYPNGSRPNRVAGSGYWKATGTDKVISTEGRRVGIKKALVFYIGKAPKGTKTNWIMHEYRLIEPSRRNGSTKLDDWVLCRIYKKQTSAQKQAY

Another assay addresses T2, GST-ATAF1 NAC domain (UniProt Q39013).
T2 sequence: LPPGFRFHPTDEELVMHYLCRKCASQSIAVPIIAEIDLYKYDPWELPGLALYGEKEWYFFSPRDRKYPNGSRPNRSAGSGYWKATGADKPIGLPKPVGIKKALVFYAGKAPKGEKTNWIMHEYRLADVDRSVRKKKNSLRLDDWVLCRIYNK

Assay [1] has as its target T3, GST-ANAC092(1-285) full length (UniProt Q9FKA0).
T3 sequence: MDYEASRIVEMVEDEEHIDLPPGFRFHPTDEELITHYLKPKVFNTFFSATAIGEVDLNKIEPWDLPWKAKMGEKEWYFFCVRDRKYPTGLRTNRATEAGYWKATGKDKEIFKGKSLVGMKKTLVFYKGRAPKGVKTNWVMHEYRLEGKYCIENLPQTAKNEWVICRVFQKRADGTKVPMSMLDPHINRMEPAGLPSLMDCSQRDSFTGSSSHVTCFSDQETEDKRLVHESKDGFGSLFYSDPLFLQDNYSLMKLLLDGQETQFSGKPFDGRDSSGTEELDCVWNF

For a further assay, the target named is T4, GST-NAP(1-166) (UniProt O49255).
T4 sequence: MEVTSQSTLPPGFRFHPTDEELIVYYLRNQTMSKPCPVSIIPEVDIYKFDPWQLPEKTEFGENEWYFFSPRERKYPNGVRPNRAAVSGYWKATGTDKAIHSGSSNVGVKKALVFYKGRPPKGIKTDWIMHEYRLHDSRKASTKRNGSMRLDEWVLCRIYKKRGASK

The target in a further assay is T5, GST-NST2(1-184) (UniProt Q9M274).
T5 sequence: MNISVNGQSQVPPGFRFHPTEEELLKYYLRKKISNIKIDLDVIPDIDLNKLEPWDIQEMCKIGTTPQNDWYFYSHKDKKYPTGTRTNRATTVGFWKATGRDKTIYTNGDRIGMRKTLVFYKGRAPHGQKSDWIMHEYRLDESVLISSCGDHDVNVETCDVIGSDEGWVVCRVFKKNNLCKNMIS

The target of another assay is T6, GST-SND1(1-203) (UniProt Q9LPI7).
T6 sequence: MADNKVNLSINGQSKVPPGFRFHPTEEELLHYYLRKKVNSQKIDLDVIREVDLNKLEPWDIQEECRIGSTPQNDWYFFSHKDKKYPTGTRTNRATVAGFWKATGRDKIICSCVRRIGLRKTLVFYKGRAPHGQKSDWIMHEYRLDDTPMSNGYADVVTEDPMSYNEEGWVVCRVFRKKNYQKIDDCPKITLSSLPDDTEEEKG

The target of the next assay is T7, GST-VND3 NAC domain (UniProt Q9FH59).
T7 sequence: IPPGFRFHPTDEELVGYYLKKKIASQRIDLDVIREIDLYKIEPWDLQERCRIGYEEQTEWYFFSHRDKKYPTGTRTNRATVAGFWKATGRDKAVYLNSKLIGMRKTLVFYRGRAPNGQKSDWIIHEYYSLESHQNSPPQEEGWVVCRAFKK

A further assay concerns the target T8, GST-VND7 NAC domain (UniProt Q9C8W9).
T8 sequence: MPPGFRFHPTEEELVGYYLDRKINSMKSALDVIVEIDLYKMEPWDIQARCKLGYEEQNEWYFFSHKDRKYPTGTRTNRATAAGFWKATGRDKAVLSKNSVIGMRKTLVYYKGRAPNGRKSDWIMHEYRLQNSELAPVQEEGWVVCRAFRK

For assay [2], the target named is T9, GST-VOZ2 (Arabidopsis thaliana) (UniProt Q9SLB9).
T9 sequence: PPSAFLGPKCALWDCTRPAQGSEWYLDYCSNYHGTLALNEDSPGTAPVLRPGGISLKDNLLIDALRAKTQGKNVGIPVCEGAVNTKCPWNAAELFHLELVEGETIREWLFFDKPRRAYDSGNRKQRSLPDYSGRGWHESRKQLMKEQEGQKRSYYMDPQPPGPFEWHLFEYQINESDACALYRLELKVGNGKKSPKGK

Another assay concerns the target GST-WRKY1(266-371) (UniProt Q9SI37).
The target in a further assay is T10, GST-ANAC092(1-176) (UniProt Q9FKA0).
T10 sequence: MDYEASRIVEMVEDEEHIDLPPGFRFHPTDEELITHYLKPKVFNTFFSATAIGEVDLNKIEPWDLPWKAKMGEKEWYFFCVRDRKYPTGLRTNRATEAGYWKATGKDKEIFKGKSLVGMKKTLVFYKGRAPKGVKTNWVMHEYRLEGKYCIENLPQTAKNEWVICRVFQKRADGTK

A further assay addresses T11, GST-NTL8 NAC domain (UniProt Q9XIN7).
T11 sequence: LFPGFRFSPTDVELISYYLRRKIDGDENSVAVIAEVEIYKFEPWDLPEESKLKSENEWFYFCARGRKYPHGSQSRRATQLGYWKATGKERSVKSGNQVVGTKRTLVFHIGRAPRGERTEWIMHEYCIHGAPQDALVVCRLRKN

The target in a further assay is T12, GST-ANAC019 NAC domain (UniProt Q9C932).
T12 sequence: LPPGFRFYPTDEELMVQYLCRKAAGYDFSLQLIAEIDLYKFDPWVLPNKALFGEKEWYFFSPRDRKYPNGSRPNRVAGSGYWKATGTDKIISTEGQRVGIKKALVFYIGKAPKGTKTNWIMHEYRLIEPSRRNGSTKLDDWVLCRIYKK

For CCTTTCCC, the binding signal is 0.11 E-score with GST-NTL6(1-168); -0.147 E-score with GST-ANAC055(1-171); -0.185 E-score in the assay with GST-ATAF1 NAC domain; -0.151 E-score in [1]; -0.0602 E-score in the assay with GST-NAP(1-166); -0.137 E-score with GST-NST2(1-184). The binding signal with GST-SND1(1-203) was -0.00651 E-score; with GST-VND3 NAC domain, -0.0732 E-score; with GST-VND7 NAC domain it was -0.148 E-score; in [2] it was -0.0308 E-score; in the assay with GST-WRKY1(266-371) it was -0.159 E-score.

With CGTAGTCA, the binding signal was -0.122 E-score with GST-ANAC092(1-176); -0.163 E-score with GST-NTL6(1-168); 0.000865 E-score in the assay with GST-ANAC055(1-171); 0.00502 E-score in assay [1]; 0.0254 E-score in the assay with GST-NAP(1-166); -0.0564 E-score in the assay with GST-NST2(1-184). Besides, the binding signal is -0.0624 E-score with GST-NTL8 NAC domain; 0.161 E-score in the assay with GST-SND1(1-203); 0.0459 E-score with GST-VND3 NAC domain; -0.00583 E-score in the assay with GST-VND7 NAC domain; 0.0627 E-score in [2]; 0.405 E-score in the assay with GST-WRKY1(266-371).

For AGGTAACC, the binding signal with GST-ANAC019 NAC domain is 0.0345 E-score; with GST-ANAC055(1-171) it was -0.004 E-score; in the assay with GST-ATAF1 NAC domain, -0.0178 E-score; with GST-NAP(1-166) it was -0.0575 E-score; with GST-NST2(1-184) it was 0.034 E-score; in the assay with GST-SND1(1-203), -0.0325 E-score. Besides, the binding signal was -0.0411 E-score in the assay with GST-VND3 NAC domain, 0.0253 E-score in the assay with GST-VND7 NAC domain, -0.177 E-score in assay [2] and -0.0721 E-score with GST-WRKY1(266-371).

Regarding ACACGCTA, the binding signal with GST-NTL6(1-168) is 0.0935 E-score; with GST-ANAC019 NAC domain it was 0.16 E-score; in the assay with GST-NST2(1-184), 0.4 E-score; in the assay with GST-NTL8 NAC domain, -0.0465 E-score; with GST-SND1(1-203), 0.438 E-score; with GST-VND3 NAC domain it was 0.079 E-score. Also, the figures for the binding signal (with GST-VND7 NAC domain; in assay [2]; in the assay with GST-WRKY1(266-371)) were 0.104 E-score, -0.0164 E-score and -0.0616 E-score, respectively.

Take CTACGCCA: the binding signal in the assay with GST-NTL6(1-168) is -0.0833 E-score; with GST-ANAC019 NAC domain, 0.00227 E-score; with GST-ANAC055(1-171), -0.0764 E-score; in assay [1], 0.34 E-score; with GST-NAP(1-166) it was -0.17 E-score; with GST-NTL8 NAC domain it was -0.0413 E-score. The binding signal in the assay with GST-SND1(1-203) is 0.454 E-score; in the assay with GST-VND3 NAC domain, -0.0456 E-score; in the assay with GST-VND7 NAC domain, -0.066 E-score; in assay [2], -0.0407 E-score; with GST-WRKY1(266-371) it was -0.167 E-score.

In the case of GGGAAACC, the binding signal with GST-NTL6(1-168) is 0.0435 E-score; in the assay with GST-ANAC019 NAC domain, 0.0318 E-score; with GST-ANAC055(1-171), -0.061 E-score; in the assay with GST-ATAF1 NAC domain, -0.114 E-score; in assay [1], 0.0329 E-score; in the assay with GST-NAP(1-166) it was -0.0407 E-score. The binding signal is -0.0787 E-score with GST-NST2(1-184); 0.00853 E-score in the assay with GST-SND1(1-203); -0.00445 E-score with GST-VND3 NAC domain; -0.0737 E-score with GST-VND7 NAC domain; -0.0731 E-score in [2]; -0.0416 E-score in the assay with GST-WRKY1(266-371).

As to GCACGCGA, the binding signal is -0.0667 E-score with GST-NTL6(1-168); -0.0753 E-score with GST-ANAC019 NAC domain; -0.0674 E-score in the assay with GST-ANAC055(1-171); -0.143 E-score in the assay with GST-ATAF1 NAC domain; 0.429 E-score in [1]; -0.0234 E-score with GST-NAP(1-166). Besides, the binding signal is -0.125 E-score with GST-NTL8 NAC domain; 0.286 E-score with GST-SND1(1-203); -0.192 E-score with GST-VND3 NAC domain; -0.00898 E-score with GST-VND7 NAC domain; -0.0408 E-score in assay [2]; -0.0391 E-score in the assay with GST-WRKY1(266-371).

As to AGTCCACG, the binding signal was -0.0584 E-score with GST-NTL6(1-168); 0.0759 E-score with GST-ANAC019 NAC domain; -0.0449 E-score in the assay with GST-ANAC055(1-171); -0.0088 E-score with GST-ATAF1 NAC domain; -0.0185 E-score in assay [1]; 0.0231 E-score with GST-NAP(1-166). The binding signal with GST-NST2(1-184) was -0.0425 E-score; with GST-NTL8 NAC domain, -0.0457 E-score; with GST-SND1(1-203) it was -0.106 E-score; with GST-VND3 NAC domain it was -0.0447 E-score; with GST-VND7 NAC domain, -0.0358 E-score; in assay [2], -0.107 E-score. Besides, the binding signal in the assay with GST-WRKY1(266-371) was 0.438 E-score.

As for ACGTAATC, the binding signal was 0.0901 E-score in the assay with GST-NTL6(1-168); 0.443 E-score with GST-NAP(1-166); 0.0332 E-score with GST-NTL8 NAC domain; 0.424 E-score with GST-SND1(1-203); 0.427 E-score in the assay with GST-VND3 NAC domain; 0.44 E-score with GST-VND7 NAC domain. Besides, the binding signal in assay [2] is 0.043 E-score; with GST-WRKY1(266-371), -0.0937 E-score.

Regarding CGTCAAAG, the binding signal in the assay with GST-ANAC092(1-176) is 0.0844 E-score; with GST-NTL6(1-168), 0.0185 E-score; with GST-ANAC055(1-171), 0.00317 E-score; with GST-ATAF1 NAC domain, -0.0234 E-score; in assay [1] it was 0.149 E-score; with GST-NAP(1-166), -0.0858 E-score. Also, the binding signal in the assay with GST-NTL8 NAC domain was 0.0498 E-score; in the assay with GST-SND1(1-203), 0.199 E-score; with GST-VND3 NAC domain, -0.0724 E-score; in the assay with GST-VND7 NAC domain, -0.0265 E-score; in [2], 0.0427 E-score; with GST-WRKY1(266-371), 0.427 E-score.

As for GGGGGAAA, the binding signal is 0.314 E-score in the assay with GST-NTL6(1-168); -0.0331 E-score in the assay with GST-ANAC055(1-171); -0.18 E-score in the assay with GST-ATAF1 NAC domain; -0.0908 E-score in the assay with GST-NAP(1-166); -0.00589 E-score with GST-NST2(1-184); 0.147 E-score with GST-SND1(1-203). In addition, the binding signal was -0.0749 E-score in the assay with GST-VND3 NAC domain, -0.061 E-score with GST-VND7 NAC domain, 0.0617 E-score in [2] and -0.0788 E-score with GST-WRKY1(266-371).
